Data reported in publication PMC4336329 (PLoS ONE, 2015).
Among all 310,000 compounds or so, about 2,200 (0.71%) showed an effect of 50% or more. The effect is printed as a negative number. This is one part of the list.

Target: human ether-à-go-go-related gene (hERG) potassium channel (human, UniProt Q12809)
Experiment: primary screen, population patch clamp on CHO cells stably expressing hERG

Sequence of human ether-à-go-go-related gene (hERG) potassium channel (Q12809 whole entry, looked up): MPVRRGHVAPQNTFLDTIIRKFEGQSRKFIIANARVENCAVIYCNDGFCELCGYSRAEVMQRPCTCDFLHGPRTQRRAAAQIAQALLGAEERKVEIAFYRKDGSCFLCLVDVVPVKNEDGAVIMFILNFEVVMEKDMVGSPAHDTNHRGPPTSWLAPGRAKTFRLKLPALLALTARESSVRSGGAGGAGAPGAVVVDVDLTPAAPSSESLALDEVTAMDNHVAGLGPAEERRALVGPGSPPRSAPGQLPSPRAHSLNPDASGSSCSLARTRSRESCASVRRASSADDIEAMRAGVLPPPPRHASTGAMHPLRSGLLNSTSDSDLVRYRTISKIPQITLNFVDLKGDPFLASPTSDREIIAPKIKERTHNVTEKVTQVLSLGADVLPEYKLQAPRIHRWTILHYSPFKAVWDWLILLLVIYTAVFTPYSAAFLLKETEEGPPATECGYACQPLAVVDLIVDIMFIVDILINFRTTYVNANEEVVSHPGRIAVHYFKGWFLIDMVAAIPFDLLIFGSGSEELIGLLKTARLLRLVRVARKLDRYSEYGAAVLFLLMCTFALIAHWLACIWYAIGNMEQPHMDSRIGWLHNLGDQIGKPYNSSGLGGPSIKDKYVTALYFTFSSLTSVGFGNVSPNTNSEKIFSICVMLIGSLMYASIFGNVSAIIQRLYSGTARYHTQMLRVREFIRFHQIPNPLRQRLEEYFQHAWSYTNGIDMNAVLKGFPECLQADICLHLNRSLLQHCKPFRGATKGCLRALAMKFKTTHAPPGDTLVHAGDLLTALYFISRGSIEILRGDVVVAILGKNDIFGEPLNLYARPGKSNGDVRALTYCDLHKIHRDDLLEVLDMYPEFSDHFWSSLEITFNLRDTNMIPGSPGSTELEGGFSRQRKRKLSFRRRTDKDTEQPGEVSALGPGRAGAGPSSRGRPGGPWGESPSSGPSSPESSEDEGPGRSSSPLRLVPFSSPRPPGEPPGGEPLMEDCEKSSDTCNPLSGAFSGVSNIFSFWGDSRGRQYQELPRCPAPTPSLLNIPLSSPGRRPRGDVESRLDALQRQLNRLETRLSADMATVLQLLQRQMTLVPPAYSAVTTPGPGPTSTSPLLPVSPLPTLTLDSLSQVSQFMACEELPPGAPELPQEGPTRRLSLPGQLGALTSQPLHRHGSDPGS

| Compound | hERG current change (%, negative = inhibition) at 1uM [%] |
| --- | --- |
| CCOC(=O)C1=C(c2ccccc2)Nc2ncnn2C1c1cc(OC)ccc1OC (stereo not drawn) | -7.08 |
| CC(=O)Nc1ccc(NC(=O)C(C)Sc2nc3nc(C)cc(C)n3n2)cc1 (stereo not drawn) | 9.36 |
| O=C(NC1CCS(=O)(=O)C1)C1C2CC3CC(C2)CC1C3 (stereo not drawn) | 12.2 |
| CN(C(=O)COc1ccccc1)c1nnc(-c2ccncc2)s1 | 7.45 |
| COc1ccc(C(=O)N(CC2CCCO2)C(C(=O)NCCC(C)C)c2ccc(C)cc2)cc1OC (stereo not drawn) | 6.63 |
| COc1ccc(NC(=O)CSCC(=O)N(C)CC(=O)Nc2c(C)cccc2C)cc1 | 7.49 |
| Cc1ccc(S(=O)(=O)c2cc3c(=O)n4cccc(C)c4nc3n(Cc3ccncc3)c2=N)cc1 | 9.03 |
| CCCCOc1ccc(C(C)(O)CCN2CCOCC2)cc1 (stereo not drawn) | 2.6 |
| CC(C)(C(=O)c1ccccc1)/[N+]([O-])=C/c1ccc(Br)cc1 | 13.5 |
| COc1ccc(S(=O)(=O)NCC(=O)N(CC(=O)NCC2CCCO2)c2cc(C)ccc2C)cc1 (stereo not drawn) | 11.1 |
| CC1CCCN(C(=O)c2ccncc2)C1 (stereo not drawn) | 4.85 |
| CC(CC(=O)Nc1ccccc1C(F)(F)F)c1ccccc1 (stereo not drawn) | 0.143 |
| Cc1cc(C)c(NC(=O)CNC(=O)CSc2nnc(N)s2)c(C)c1 | 11.2 |
| Cc1nn(Cc2ccc(F)cc2)c(C)c1NC(=O)c1cnn2cccnc12 | 16 |
| COCCNC(=O)CN(C(=O)CCC(=O)Nc1ccccn1)c1ccccc1F | 14.6 |
| C=CCNc1nc(Cl)ncc1F | 2.31 |
| CSc1ccccc1-c1nnc(-c2ccc(Cl)cc2Cl)o1 | 10.1 |
| Cn1cc(C(C[N+](=O)[O-])c2ccccc2)c2ccccc21 (stereo not drawn) | 10.1 |
| COC(=O)c1ccc(COC(=O)c2ccc(CO)cc2)o1 | 13.2 |

| Compound | hERG current change (%, negative = inhibition) at 1uM [%] |
| --- | --- |
| CC1CCCCN1S(=O)(=O)c1ccc(C(=O)Nc2nnc(-c3ccccc3Cl)o2)cc1 (stereo not drawn) | 5.52 |
| O=C(N/C(=C/c1ccc(Cl)cc1)C(=O)N1CCCC1)c1ccccc1 | 2.73 |
| O=C(COC(=O)c1ccc2c(c1)C(=O)N(c1cccc3ncccc13)C2=O)c1ccc(Cl)cc1 | 11.8 |
| COc1ccc(C(NC=O)c2cc(OC)c(OC)cc2Br)cc1OC (stereo not drawn) | 11 |
| Cc1c(C)n2c(SCC(=O)N3CC(C)OC(C)C3)nnc2[nH]c1=O (stereo not drawn) | 14.2 |
| O=C1ON=C(c2ccccc2)/C1=C/c1ccc(O)cc1 | 16.5 |
| CCCCCCNC(=O)c1ccc(Br)o1 | 5.22 |
| CCn1c(=O)c2c(nc3n2CCCN3c2cccc(C)c2)n(C)c1=O | 3.78 |
| Cc1ccccc1OCC(=O)NNC(=O)CN1C(=O)c2ccccc2C1=O | 5.8 |
| COCCN(C(=O)Nc1ccccc1OC)c1nc2ccccc2s1 | 16.2 |
| Cl.NC(=O)c1c(NC(=O)c2c(F)cccc2F)sc2c1CCN(Cc1ccccc1)C2 | -8.58 |
| CCCCC(CC)CNC(=O)c1ncn[nH]1 (stereo not drawn) | 5.25 |
| CC(C)CCNC(=O)C(=O)Nc1cc2c3c(c1)CC(=O)N3CCC2 | 2.41 |
| CCC(C)C(=O)Nc1ccc(OC)cc1[N+](=O)[O-] (stereo not drawn) | 13.6 |
| Cc1ccc(CN(C)CC(=O)Nc2cccc([N+](=O)[O-])c2)o1 | -4.14 |
| O=c1c2ccccc2nc(Cc2ccccc2)n1-c1ccc(O)cc1 | 4.55 |
| COC(=O)c1cn(NC(=O)Cc2cccc(C(F)(F)F)c2)c(=O)c2ccccc12 | 0.457 |
| CC(C)Cn1c(SCC(=O)NC2CCCc3ccccc32)nc(O)cc1=O (stereo not drawn) | 19.2 |
| Cc1nc2scc(-c3cccs3)c2c(=O)[nH]1 | 11.8 |

| Compound | hERG current change (%, negative = inhibition) at 1uM [%] |
| --- | --- |
| CCOC(=O)c1c(-c2ccc(F)cc2)csc1NC(=O)CCN1C(=O)c2ccccc2C1=O | 7.07 |
| Cn1cccc1C1NC(=O)c2c(sc3c2CCC(C(C)(C)C)C3)N1 (stereo not drawn) | 10.1 |
| CC(C)NC(=O)CC(=O)N/N=C/c1c(F)cccc1Cl | 1.37 |
| COC(=O)c1cc(C(=O)OC)cc(N2C(=O)CC(NNC(=O)c3ccc(C)cc3)C2=O)c1 (stereo not drawn) | 11.6 |
| CC1CN(c2nc3ccccc3nc2C(C#N)C(=O)OC2CCCCC2)CC(C)O1 (stereo not drawn) | 9.53 |
| O=C(CN1C(=O)C2C3C=CC(C3)C2C1=O)OCC(=O)c1ccc(Br)cc1 (stereo not drawn) | 9.83 |
| CCCCCCCCCCOC(=O)Cn1c(COc2ccccc2C)[n+](C)c2ccccc21.[Cl-] | -18 |
| Cn1c(=NC(=O)c2cccc([N+](=O)[O-])c2)sc2ccccc21 | 1.11 |
| Cc1cnc(NC(=O)CCN2C(=O)C3CCCCC3C2=O)s1 (stereo not drawn) | 12.3 |
| CCC(Oc1ccccc1)C(=O)Nc1ccc(S(=O)(=O)Nc2ncccn2)cc1 (stereo not drawn) | 15 |
| O=C(c1cccc(F)c1)N1CCCC(C(=O)N2CCN(c3ccccc3)CC2)C1 (stereo not drawn) | 11.2 |
| O=C(CSc1nnc(NC(=O)c2ccco2)s1)Nc1ccc(F)cc1 | 16.2 |
| O=C(CSc1n[nH]c(-c2cccnc2)n1)Nc1ccccc1 | 5.77 |
| Cc1cc(C)nc(NC(=S)NC(=O)c2ccccc2F)n1 | 1.57 |
| S=C1NCCc2ccc(Cl)cc2C1c1ccccc1 (stereo not drawn) | -6.86 |
| NC(=O)COc1ccc(Cc2ncc(C(F)(F)F)cc2Cl)cc1 | 8.92 |
| N#CCc1nn(Cc2ccc(F)cc2)c(=O)c2ccccc12 | 4.32 |
| CCc1cccc2c(C(=O)COC(=O)c3ccc([N+](=O)[O-])s3)c[nH]c12 | 7.73 |
| C[C@H]1c2cccc(O)c2C(O)=C2C(=O)C3(O)C(O)=C(C(N)=O)C(=O)[C@@H](N(C)C)[C@@H]3[C@@H](O)[C@@H]21.Cl (stereo partly drawn) | 17.8 |
